Measurements from PubChem BioAssay AID493208 (National Center for Advancing Translational Sciences (NCATS), 2011).
Hit rate of the full screen: of about 44,000 compounds, about 340 (0.77%) were called active. Inconclusive results (about 5%) are left out. Calls follow the shape of the dose curve; as a rule, active = well fitted inhibition curve with a large enough effect; inconclusive = small, poorly fitted or top-dose-only effect; inactive = flat fitted curve, though single readings scatter. This is one part of the list.

Test: Acumen qHTS Assay for Inhibitors of the mTORC1 Signaling Pathway in MEF (Tsc2-/-, p53-/-) Cells: Sytravon; also: nearly all actives have a fitted effect of over 50% in size
Conditions: phospho-rpS6 immunofluorescence/PI, 24 h; series mostly up to 38.3 µM; activity change, negative = inhibition: at the top concentration
Excerpt: NIH Molecular Libraries Probe Production Centers Network [MLPCN] NIH Chemical Genomics Center [NCGC] MLPCN Grant: NS059428-01 Assay Submitter (PI): Blenis, John; Hoffman, Greg; Harvard University NCGC Assay Overview: The mammalian target of rapamycin (mTOR) is an intracellular serine/threonine kinase Aberrant regulation of mTOR signaling plays a causative role in a number of human diseases, including cancer, benign tumors such as lymphangioleiomyomatosis (LAM) and Tuberous Sclerosis Complex (TSC), and metabolic diseases such as diabetes and obesity. This project aims to identify inhibitors of ribosomal protein S6 (rpS6) phosphorylation. The phosphorylation of rpS6 is a key event downstream of mTOR activation. The assay uses a phospho-specific antibody of phospho-rpS6 to detect inhibitors of mTOR activation. Mutations in the Tsc1 and Tsc2 genes are the underlying genetic lesions responsible for TSC, causing constitutive activation of the mTORC1 pathway and leading to profound effects on cell metabolism. Aberrant metabolism in cancer has recently received significant attention as a target to develop therapeutic agents in the treatment of cancer.1 As Tsc2-/- cells have lost the ability to respond to energy and growth factor deprivation, these cells are unable to properly down regulate cellular biosynthetic processes in response to metabolic stress, and are thus extremely sensitive to glucose deprivation-induced death.2 A central goal of this project is to explore the unique cell survival and metabolic properties of cells with Tsc1 or Tsc2 by screening for compounds that selectively target the Tsc2-/- MEFs by screening both Tsc2-/- and WT MEF cell lines. We hope to better understand these aspects of TSC physiology in order to exploit them for therapeutic benefit.
NCGC Acumen Assay Protocol Summary: For quantitative high throughput analysis of mTORC1 signaling, we developed a cell-based assay for immuno-fluorescence based detection of rpS6 phosphorylation on the Acumen Explorer that will be used a platform for the primary small molecule screen. Mouse embryonic fibroblasts (MEFs) are cultured in 1536-well plates using DMEM + 10% FBS. Twenty-four hrs after plating, test compounds (solubilized in DMSO) are delivered and incubated with the cells for 24 hrs at 37 degree Celsius. Following the incubation, media with compound is aspirated and the cells are fixed in 4% paraformaldehyde (PFA) containing PBS + 0.2% TX-100. Next, PFA is aspirated, cells are washed two times with PBS plus 0.2% TX-100 and the cells are blocked for 1 hr at room temperature (blocking buffer: LiCOR Blocking Buffer plus 0.2% TX-100). […] Cells are washed two times with PBS plus 0.2% TX-100, and stained with 10 uM propidium iodide (PI) for 20-25 minutes for cell number measurement (1:500 dilution of Hoescht staining is also added for IN Cell imaging). The plates are scanned on the Acumen Explorer laser scanning instrument (TTP Labtech) using the 488nm laser for simultaneous excitation of the Alexa-488 and PI. […] The normalized phospho-S6 staining is calculated as the ratio of the integrated Alexa 488 intensity divided by the integrated PI intensity for the single concentration rapamycin control (7.5 nM) and DMSO columns. […] Inhibition of the pathway is defined based on the normalized phospho-S6 intensity in rapamycin treated cells. Active cells are defined as those with a normalized phospho-S6 staining above this threshold, and each treatment is reported as the % positive cells in the well, where thresholds are defined by selecting wells with the highest and lowest signal and differentiating between the % non-active and % active populations. In addition to the pathway specific phospho-S6 endpoint, the number of PI stained cells from the Acumen is recorded as a measure of cell viability. The primary screen was performed with a MEF cell line in a defined genetic background, Tsc2-/-, p53-/- cell line stably transfected with an empty vector control (Tsc2-/- MEF).

Activity change, negative = inhibition, inactive:
CCOC(=O)c1ccc(N=C2SC(C(=O)Nc3ccccc3)CC(=O)N2C)cc1 (configuration not stated) 3.3%, O=C(NCCSCc1ccccc1)C1CCN(S(=O)(=O)Cc2ccccc2)CC1 0.256%, COc1ccc(CNC(=O)C2(c3cccs3)CCOCC2)cc1 1.14%, Cc1ccccc1-c1nc(CN2CCC(C(=O)NC(C)C)CC2)c(C)o1 -10%, CCCCc1nn2c(=O)cc(COC(=O)CNC(=O)COc3ccc(C)cc3)nc2s1 -12.9%, CCN(CC)S(=O)(=O)c1cccc(C(=O)Nc2ccccc2C(=O)Nc2ccc(OC)cc2)c1 -2.42%, COc1ccc(N2CCN(CC(O)COc3c(OC)cccc3OC)CC2)cc1 (configuration not stated) -8.96%, CCOc1ccc(NC(=O)c2c(NCc3cccs3)sc3c2CCC(C)C3)cc1 (configuration not stated) -0.431%, CCC1CN(C(=O)NCc2cccc(OC)c2)c2ccccc2O1 (configuration not stated) 5.73%, COc1ccc(CCNC(=O)c2cc3c(=O)n(C)c4cc(Cl)ccc4c3s2)cc1OC -6.16%, COc1ccc(-c2[nH]c(-c3ccccc3)nc2SCC(=O)NC2CCCC2)cc1 -9.24%, CCN1C(=O)c2ccccc2Sc2ccc(NC(=O)Nc3ccc(Br)c(C)c3)cc21 -11.1%, COc1ccc(Nc2nc(N)nc(CSc3nc4ccccc4s3)n2)cc1 -6.81%, O=S1(=O)c2ccccc2N(Cc2ccccc2Cl)c2ccccc21 0.31%, Cc1ccc(-c2ccc(=O)n(CC(=O)NC(C)c3ccccc3)n2)cc1 (configuration not stated) 14.5%, Cc1ccccc1NC(=O)Cn1c(=O)n(CCCCC(=O)NCc2ccccc2Cl)c(=O)c2ccccc21 -6.54%, O=C(CN1C(=O)COc2ccc(S(=O)(=O)Nc3ccccc3)cc21)NCc1ccccc1Cl 0.24%, CCN(CC)S(=O)(=O)c1ccc(C(=O)NC2CC(=O)N(c3ccc4c(c3)OCCO4)C2)cc1 (configuration not stated) 1.14%, CCOC(=O)c1c(S(=O)(=O)N2CCC(C(=O)Nc3cccc(C#N)c3)CC2)c(C)n(C)c1C -0.658%, Cc1c(C(=O)OC2CCCCCC2)[nH]c2c1C(=O)CC(c1ccccc1Cl)C2 (configuration not stated) -24.5%, COc1ccc(CCNc2nc(SCc3ccccc3Cl)nc3ccccc23)cc1OC 3.12%, COc1ccc(NC(=O)Cn2c(=O)n(CCc3ccccc3)c(=O)c3sc4ccccc4c32)cc1 -10.2%, Cc1cc(C)nc(-n2nc(C)c3c2NC(=O)CC3c2ccccc2OC(C)C)n1 (configuration not stated) -2.36%, O=C(CSc1nc2c(c(=O)[nH]1)CN(Cc1ccc(F)cc1)CC2)Nc1cccc(C(F)(F)F)c1 -1.35%, CCCCC(=O)NC1(C(F)(F)F)C(=O)Nc2c1c(=O)[nH]c(=O)n2-c1ccc(F)cc1 (configuration not stated) -9.74%, Cc1ccc(C)c(NC(=O)C2CCCN(S(=O)(=O)c3cccc4nsnc34)C2)c1 (configuration not stated) 3.44%, COc1cc(Cl)c(NS(=O)(=O)c2ccc3[nH]c(=O)ccc3c2)c(OC)c1 1.52%, CCC1CCCCN1C(=O)Cn1c(=O)n(-c2ccccc2C(F)(F)F)c(=O)c2c(C)c(C(=O)N(C)C)sc21 (configuration not stated) -1.09%, CCOc1ccc(NC(=O)C(CC)n2nc(-c3ccc(C)c(C)c3)ccc2=O)cc1 (configuration not stated) -0.201%, CCOc1ccc(OCC)c(NC(=O)CN(c2ccc(C)cc2)S(=O)(=O)c2c(C)n[nH]c2C)c1 -2.05%, COc1ccc(C2CC(=O)c3c([nH]c(C(=O)OC4CCCC4)c3C)C2)cc1OC (configuration not stated) 1.45%, COc1ccccc1N1CCN(C(c2ccccc2)c2nnc(-c3ccccc3Cl)o2)CC1 (configuration not stated) -7.87%, Cc1ccc(NC(=O)Cn2c(=O)n(Cc3nc(-c4ccccc4)no3)c(=O)c3cc4c(cc32)OCO4)cc1C -0.84%, O=C(c1ccc2c(c1)N(Cc1ccccc1F)C(=O)c1ccccc1S2(=O)=O)N1CCCCCC1 -3.44%, CCCNC(=O)c1cc2n(n1)CCCN(Cc1ccc(F)cc1)C2=O -6.44%, COc1cccc(C(=O)c2sc(Nc3ccc(C)cc3C)c(S(=O)(=O)c3ccccc3)c2N)c1 1.51%, CCOc1ccc(CCNC(=O)c2ccc(Cn3c(=O)c4cccn4c4cccnc43)cc2)cc1 -4.12%, COc1ccc(-c2csc3ncnc(Nc4ccc(OC)c(OC)c4)c23)cc1 0%, CCOC(=O)c1sc(N2C(=O)c3oc4ccc(F)cc4c(=O)c3C2c2cccc(OC)c2)nc1C (configuration not stated) -3.18%, Cc1cc(N2CCCCC2)nc2ccc(NC(=O)CCC(=O)N3CCN(c4cccc(Cl)c4)CC3)cc12 -7.75%, CCN(C(=O)Cn1c(SCc2ccccc2F)nc2cccnc21)c1ccccc1 2.44%, O=C(C1COc2ccccc2O1)N(Cc1cccnc1)c1nc2ccc(F)cc2s1 (configuration not stated) -1.71%, O=C(CSCc1nc2cccnc2n1C1CCCCC1)NCc1cccc(Br)c1 -0.858%, O=C(OCc1ccccc1)c1ccc(-c2nnn(Cc3ccccc3F)n2)cc1 3.11%, CCOc1ccc(CCNC(=O)c2ccc3[nH]c(C)c(C)c3c2)cc1 -3.81%, Cc1ccc2scc(N3CCN(c4ccccc4)CC3)c(=O)c2c1 -0.684%, O=C(Cn1c(=O)oc2ccccc21)NCc1ccccc1Cl -0.573%
